The shares of active, inactive and inconclusive entries below differ from those in the screen. For some of these results: Where the call is inconclusive, the potency comes from a doubtful curve fit. Calls of active or inactive are those of the source. Unless noted, calls follow the shape of the dose curve; as a rule, active = well fitted curve in the direction sought with a large enough effect in the repeat runs; inconclusive = weak or mixed curves; inactive = no such curve, though single readings can be large; an effect the other way counts as inactive or inconclusive.
Experiments:
[1] = qHTS RealTime-Glo MT Cell Viability Assay in HEK293 cells - 32 hour (AID 1224868); also: potency is read from the fitted curve at half-maximal effect; nearly all actives have a fitted effect of over 50% in size
Procedure, shortened: (§1)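 Reads taken at 0, 8, 16, 24, 32 and 40 h from the same wells. HEK293 cells (600/well) carried RealTime-Glo reagents from seeding, with compound added after a 5 h settle at 37 C.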

[2] = qHTS RealTime-Glo MT Cell Viability Assay in HEK293 cells - 16 hour (AID 1224872); also: potency is read from the fitted curve at half-maximal effect; nearly all actives have a fitted effect of over 50% in size
Procedure, shortened: as §1

[3] = qHTS RealTime-Glo MT Cell Viability Assay in HepG2 cells - 8 hour (AID 1224873); also: potency is read from the fitted curve at half-maximal effect; nearly all actives have a fitted effect of over 55% in size
Procedure, shortened: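 Real-time viability: cells seeded at 600 per well together with NanoLuc and cell-permeant prosubstrate, compounds added after 5 h incubation. Luminescence tracked at 0, 8, 16, 24, 32 and 40 h of exposure.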

[4] = A CellTox Green Cytotoxicity Assay to monitor cytotoxicity in HepG2 cells - 40 hour (AID 1224879); also: % is scaled to controls: 0 for no effect and ±100 for the full control effect; nearly all actives have a fitted effect of over 40% in size
Procedure, shortened: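 HepG2 cells were seeded together with the CellTox Green dye at 600 cells/well, left 5 h at 37 C/5% CO2, then given compounds in DMSO. Fluorescence from dye bound to dead-cell DNA was read repeatedly over 40 h of treatment at 37 C.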

[5] = qHTS RealTime-Glo MT Cell Viability Assay in HEK293 cells - 24 hour (AID 1224886); also: potency is read from the fitted curve at half-maximal effect; nearly all actives have a fitted effect of over 50% in size
Procedure, shortened: as §1

[6] = qHTS RealTime-Glo MT Cell Viability Assay in HEK293 cells - 8 hour (AID 1224887); also: potency is read from the fitted curve at half-maximal effect; nearly all actives have a fitted effect of over 50% in size
Procedure, shortened: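 HEK293 cells mixed with RealTime-Glo reagents (NanoLuc plus cell-permeant prosubstrate) at 600 cells/well, preincubated 5 h at 37 C/5% CO2, then given 23 nL compound in DMSO. Nonlytic luminescence from viable cells was read at 0, 8, 16, 24, 32 and 40 h.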

[7] = molecular target: Estrogen receptor beta (Homo sapiens) (UniProt Q92731); test: qHTS assay to identify small molecule antagonists of the estrogen receptor beta (ER-beta) signaling pathway (AID 1259378; active = well fitted inhibition curve with a large enough effect in the signal ratio in the repeat runs, not every such curve was filed as active; inconclusive = weak or mixed curves, or effect the other way; inactive = no such curve, though single readings can be large or run the other way; the % refers to the signal ratio; also: potency is read from the fitted curve at half-maximal effect); details: ER-beta-UAS-bla HEK293T, beta-lactamase FRET ratio, 16 h; activity, negative = inhibition: at 92.4 µM (top of the series) unless noted
Procedure, shortened: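 Antagonist mode: compounds added to beta-lactamase reporter HEK293T ER-beta-UAS cells stimulated with E2 (1nM final), 16 hr at 37C. LiveBLAzer B/G FRET substrate, 2 hours room temperature, fluorescence read-out.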

[8] = molecular target: Progesterone receptor (Homo sapiens) (UniProt P06401); test: qHTS assay to identify small molecule antagonists of the progesterone receptor (PR) signaling pathway (AID 1346795; active = well fitted inhibition curve with a large enough effect in the signal ratio in the repeat runs, not every such curve was filed as active; inconclusive = weak or mixed curves; the % refers to the signal ratio; also: potency is read from the fitted curve at half-maximal effect); details: PR-UAS-bla HEK293T, beta-lactamase FRET ratio, 16 h; activity change, negative = inhibition: at 92.4 µM (top of the series) unless noted
Procedure, shortened: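 Antagonist mode with agonist R5020 at 1 nM final and 16 hr incubation at 37C. Reporter was beta-lactamase driven by UAS in HEK293T (PR-UAS-bla), 2% charcoal-stripped serum; signal from LiveBLAzer FRET substrate, 2 hr at room temperature.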

[9] = qHTS assay to identify small molecule antagonists of the progesterone receptor (PR) signaling pathway - cell viability counter screen (AID 1346798)
Procedure, shortened: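 Cytotoxicity read as CellTiter-Glo luminescence (30 min, room temperature) in the same wells as the beta-lactamase readout. HEK293T PR-UAS-bla cells in charcoal-stripped 2% FBS received compound and R5020, then 16 h at 37C, 5% CO2.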

[10] = qHTS assay to identify small molecule agonists of the progesterone receptor (PR) signaling pathway - cell viability counter screen (AID 1346799; calls by dose curve; also: % is scaled to controls: 0 for no effect and ±100 for the full control effect; nearly all actives have a fitted effect of over 45% in size)
Procedure, shortened: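 Cytotoxicity measured by CellTiter-Glo luminescence (30 min, RT) in the same wells as the PR beta-lactamase agonist read. Those HEK293T cells had 16 h compound treatment at 37 C in 2% charcoal-stripped FBS medium.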

[11] = qHTS assay to identify small molecule antagonists of the TGF-beta/Smad signaling pathway (AID 1346924; active = well fitted inhibition curve with a large enough effect in the signal ratio in the repeat runs, not every such curve was filed as active; inconclusive = weak or mixed curves; the % refers to the signal ratio); details: SBE-bla HEK293T, TGF-beta/Smad reporter, beta-lactamase ratio; activity, negative = inhibition: at 76.8 µM (top of the series) unless noted
Procedure, shortened: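 SBE-bla HEK 293T cells were plated overnight, then received compound in DMSO plus TGF-beta1 (added as a 0.25 ng/mL solution) and were incubated 5 h at 37 C. Beta-lactamase reporter activity was read after 2 h at room temperature with LiveBLAzer B/G FRET substrate (ex 405, em 460/530 nm).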

[12] = Human pregnane X receptor (PXR) small molecule agonists, qHTS cell viability counter screen (AID 1346977)
Procedure, shortened: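 Same-well viability read: CellTiter-Fluor added after 23 hr compound exposure, fluorescence measured 1 hr later. Cells were PXR-Luc HepG2 seeded at 2,000/well in 5% charcoal-stripped FBS medium, rested 5 hr before dosing at 37 C.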

[13] = Caspase-3/7 induction in HepG2 cells by small molecules, qHTS cell viability counter screen (AID 1346981); also: potency is read from the fitted curve at half-maximal effect; nearly all actives have a fitted effect of over 30% in size
Procedure, shortened: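 Wild-type HepG2 cells (2,000/well) were allowed to settle for 5 hr at 37 C, 5% CO2, then dosed with compounds in DMSO by pin transfer. After 16 hr at 37 C, CellTiter-Fluor was added and fluorescence read 1 hr later.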

[14] = molecular target: Nuclear receptor subfamily 1 group I member 2 (Homo sapiens) (UniProt O75469); test: Human pregnane X receptor (PXR) activation by small molecules, qHTS assay (AID 1346985); also: potency is read from the fitted curve at half-maximal effect; nearly all actives have a fitted effect of over 40% in size
Procedure, shortened: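 DPX-2 cells (HepG2 co-transfected with a PXR response element and a CYP3A4-promoter luciferase construct) were seeded at 2,000 per well, rested 5 hr at 37C, then exposed to DMSO-dissolved compounds for 24 hr. Activation was read as luciferase luminescence.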

[15] = molecular target: Cytochrome P450 2C9 (Homo sapiens) (UniProt P11712); test: Cytochrome P450 Family 2 Subfamily C Member 9 (CYP2C9) small molecule antagonists: luciferase reporter qHTS assay (AID 1671198)
Procedure, shortened: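 Enzyme-substrate mix preincubated with compound 10 min at room temperature; reaction started with NADPH regeneration solution, 1 h 37C. Luminescent luciferin product read after 20 min detection reagent.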

[16] = molecular target: Voltage-gated inwardly rectifying potassium channel KCNH2 (Homo sapiens) (UniProt Q12809); test: Human Ether-a-go-go-Related Gene (hERG) channel small molecule antagonists: fluorescence cell-based qHTS assay (AID 1671200)
Procedure, shortened: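 Thallium flux as potassium surrogate: FluxOR II dye loaded 1 h at room temperature into hERG-expressing U2OS cells, then stimulus buffer added after 10 min. Kinetic 480 nm excitation/540 nm emission read, 2 min.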
Tags tell the direction and shape of the fitted curve or compound fluorescence and quenching.

Chain of UniProt Q92731 (Q92731 whole entry, looked up): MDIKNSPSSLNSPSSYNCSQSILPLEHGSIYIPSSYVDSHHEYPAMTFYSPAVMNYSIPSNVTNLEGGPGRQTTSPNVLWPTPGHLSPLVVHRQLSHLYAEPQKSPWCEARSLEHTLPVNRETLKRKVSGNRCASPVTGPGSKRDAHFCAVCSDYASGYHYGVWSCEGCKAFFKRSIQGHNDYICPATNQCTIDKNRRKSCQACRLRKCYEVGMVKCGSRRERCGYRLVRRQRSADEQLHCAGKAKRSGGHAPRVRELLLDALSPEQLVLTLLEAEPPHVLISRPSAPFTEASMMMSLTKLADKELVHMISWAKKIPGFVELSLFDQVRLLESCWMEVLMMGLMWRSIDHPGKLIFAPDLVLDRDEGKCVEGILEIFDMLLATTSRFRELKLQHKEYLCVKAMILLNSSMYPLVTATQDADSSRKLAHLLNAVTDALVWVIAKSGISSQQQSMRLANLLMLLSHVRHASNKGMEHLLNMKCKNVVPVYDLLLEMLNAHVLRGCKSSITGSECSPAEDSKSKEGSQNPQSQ
Chain of UniProt Q12809 (Q12809 whole entry, looked up): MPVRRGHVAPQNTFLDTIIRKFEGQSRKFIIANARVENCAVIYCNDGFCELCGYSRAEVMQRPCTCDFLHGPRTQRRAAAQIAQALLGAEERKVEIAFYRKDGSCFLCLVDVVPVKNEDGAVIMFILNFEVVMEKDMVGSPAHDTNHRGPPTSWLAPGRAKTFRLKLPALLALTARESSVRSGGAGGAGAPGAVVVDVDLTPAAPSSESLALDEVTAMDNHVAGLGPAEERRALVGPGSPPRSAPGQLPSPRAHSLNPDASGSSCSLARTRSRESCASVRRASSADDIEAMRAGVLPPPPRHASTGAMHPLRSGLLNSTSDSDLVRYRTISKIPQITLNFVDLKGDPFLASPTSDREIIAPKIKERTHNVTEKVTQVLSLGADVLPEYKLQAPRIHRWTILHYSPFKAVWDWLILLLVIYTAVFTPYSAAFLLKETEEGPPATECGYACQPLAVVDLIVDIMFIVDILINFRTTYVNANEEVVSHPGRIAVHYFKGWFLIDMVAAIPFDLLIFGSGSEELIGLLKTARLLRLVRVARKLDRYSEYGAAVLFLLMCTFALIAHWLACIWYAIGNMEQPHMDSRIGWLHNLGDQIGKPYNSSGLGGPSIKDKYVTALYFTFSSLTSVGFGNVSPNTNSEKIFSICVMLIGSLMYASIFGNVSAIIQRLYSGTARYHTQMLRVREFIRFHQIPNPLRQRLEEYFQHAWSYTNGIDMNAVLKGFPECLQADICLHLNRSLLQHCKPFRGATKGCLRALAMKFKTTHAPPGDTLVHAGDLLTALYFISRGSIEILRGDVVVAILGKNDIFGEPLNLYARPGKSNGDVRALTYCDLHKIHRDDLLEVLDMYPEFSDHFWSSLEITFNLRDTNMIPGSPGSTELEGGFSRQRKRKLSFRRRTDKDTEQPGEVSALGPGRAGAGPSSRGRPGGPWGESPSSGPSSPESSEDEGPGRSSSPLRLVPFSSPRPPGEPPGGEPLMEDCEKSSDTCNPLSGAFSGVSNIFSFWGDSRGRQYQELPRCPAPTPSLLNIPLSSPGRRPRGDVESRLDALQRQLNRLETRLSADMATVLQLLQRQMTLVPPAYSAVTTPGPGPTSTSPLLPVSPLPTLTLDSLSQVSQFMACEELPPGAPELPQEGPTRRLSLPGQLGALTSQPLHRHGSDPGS
Chain of UniProt P11712 (P11712 whole entry, looked up): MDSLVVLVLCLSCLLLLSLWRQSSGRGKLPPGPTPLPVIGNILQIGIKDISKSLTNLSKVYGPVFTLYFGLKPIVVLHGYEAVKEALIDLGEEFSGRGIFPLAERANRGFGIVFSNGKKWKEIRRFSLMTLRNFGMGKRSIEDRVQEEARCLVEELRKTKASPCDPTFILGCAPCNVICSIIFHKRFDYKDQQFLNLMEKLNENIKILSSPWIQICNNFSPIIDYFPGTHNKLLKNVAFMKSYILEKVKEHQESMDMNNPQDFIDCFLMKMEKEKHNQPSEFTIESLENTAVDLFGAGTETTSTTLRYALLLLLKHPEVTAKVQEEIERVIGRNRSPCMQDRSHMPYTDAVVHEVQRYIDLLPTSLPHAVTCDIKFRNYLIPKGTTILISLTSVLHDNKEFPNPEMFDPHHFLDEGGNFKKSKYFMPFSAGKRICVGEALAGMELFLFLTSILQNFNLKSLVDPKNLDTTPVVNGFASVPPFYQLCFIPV
Chain of UniProt P06401 (P06401 whole entry, looked up): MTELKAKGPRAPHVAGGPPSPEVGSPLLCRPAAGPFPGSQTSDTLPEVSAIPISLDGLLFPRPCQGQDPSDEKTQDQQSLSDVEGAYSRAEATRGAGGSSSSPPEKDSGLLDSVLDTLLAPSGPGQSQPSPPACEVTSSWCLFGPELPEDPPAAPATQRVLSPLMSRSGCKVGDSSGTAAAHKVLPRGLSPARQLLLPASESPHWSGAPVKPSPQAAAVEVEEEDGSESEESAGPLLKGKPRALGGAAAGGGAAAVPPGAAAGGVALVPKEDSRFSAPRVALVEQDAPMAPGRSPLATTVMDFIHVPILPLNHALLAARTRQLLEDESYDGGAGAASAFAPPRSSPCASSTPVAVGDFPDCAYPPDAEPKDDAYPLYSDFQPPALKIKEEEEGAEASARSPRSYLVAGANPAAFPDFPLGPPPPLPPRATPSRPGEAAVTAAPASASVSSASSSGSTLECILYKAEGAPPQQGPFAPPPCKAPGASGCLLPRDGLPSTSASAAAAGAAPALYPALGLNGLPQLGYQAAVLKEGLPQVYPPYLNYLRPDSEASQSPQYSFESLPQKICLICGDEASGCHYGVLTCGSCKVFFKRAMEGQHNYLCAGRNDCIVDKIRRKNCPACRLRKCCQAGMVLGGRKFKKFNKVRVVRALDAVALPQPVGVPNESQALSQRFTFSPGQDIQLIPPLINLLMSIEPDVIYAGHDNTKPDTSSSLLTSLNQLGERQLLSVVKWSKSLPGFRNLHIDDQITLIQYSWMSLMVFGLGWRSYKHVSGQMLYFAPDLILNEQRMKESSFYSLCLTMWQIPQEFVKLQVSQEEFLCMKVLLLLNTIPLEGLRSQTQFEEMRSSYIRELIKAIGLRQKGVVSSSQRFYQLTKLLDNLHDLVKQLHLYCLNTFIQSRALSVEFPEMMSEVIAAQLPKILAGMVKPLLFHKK

CCOc1cc(N)c(Cl)cc1C(=O)NCC1CN(Cc2ccc(F)cc2)CCO1 (stereo unspecified)
inactive: Potency [4] | Potency [9] | Potency [10]
active: Potency [1] 16.9 µM | Potency [2] 16.9 µM | Potency [5] 15.1 µM | Potency [6] 19 µM | Potency [14] 12.6 µM
inconclusive: Potency [3] 23.9 µM [falling, partial curve, poor fit] | Potency [7] 21.1 µM [inhibitor] | Potency [8] 29.8 µM | activity, negative = inhibition [11] 10.6% [at 35.3 µM] | Potency [12] 29.8 µM [cytotoxic, partial curve] | Potency [13] 33.5 µM [cytotoxic, partial curve, poor fit] | Potency [15] 0.0436 µM [inhibitor, full curve, poor fit] | Potency [16] 23.9 µM [inhibitor, partial curve]
